{"source": "PubChem BioAssay AID1745845", "about": "(National Center for Advancing Translational Sciences (NCATS), 2022)", "note": "About 2,600 (0.72%) of roughly 360,000 compounds were called active. The shares of active, inactive and inconclusive entries below differ from those in the screen. Calls come from the whole dose curve; as a rule, active = well fitted inhibition curve with a large enough effect; inconclusive = small, poorly fitted or top-dose-only effect; inactive = no such curve, though single readings can be large or run the other way. Potencies beside an inconclusive call are fits to weak or partial responses and may not hold up. Potency is the fitted concentration of half-maximal effect; tags give direction and shape of the fitted curve."}
{"assay": "Primary qHTS for Inhibitors of ATXN expression; note: nearly all actives have a fitted effect of over 55% in size", "settings": "HEK-293 ATXN2-luciferase reporter, luminescence, 24 h; series mostly up to 57 µM", "procedure,_shortened": "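qHTS (up to 57 uM final) was run with 24 h compound exposure of reporter cells at 37 °C. Each well was multiplexed: SteadyGlo luminescence measured ATXN2-luciferase expression after a fluorogenic Gly-Phe-AFC viability readout (25 uM final).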"}
{"smiles": "Cc1c(C(=O)Nc2ccccc2)c2ccc(C(F)(F)F)cc2n1O", "Potency": "inconclusive: 28.2 µM [inhibitor, single point]"}
{"smiles": "CCN(CC)C(=O)C1CCCN(c2ncnc3c2cnn3-c2ccc(Cl)cc2)C1", "note": "(stereo not given)", "Potency": "active: 12.6 µM"}
{"smiles": "COC(=O)c1nnn(CC(=O)Nc2ccc(Br)c(C)c2)c1N", "Potency": "inactive"}
{"smiles": "Cc1ccc(S(=O)(=O)N2CCCCC2CCNC(=O)C(=O)NCc2ccncc2)cc1", "note": "(stereo not given)", "Potency": "inactive"}
{"smiles": "Cn1nnnc1Sc1ncnc2scc(-c3cccc(C(F)(F)F)c3)c12", "Potency": "active: 14.1 µM"}
{"smiles": "Cc1ccc(N2CC(C(=O)N3CCC(C(=O)Nc4ccc(Br)cc4)CC3)CC2=O)cc1", "note": "(stereo not given)", "Potency": "inconclusive: 25.1 µM [inhibitor, partial curve, poor fit]"}
{"smiles": "O=C(NCCCn1ccnc1)c1cc(-c2cccs2)on1", "Potency": "inactive"}
{"smiles": "COc1ccc(-c2cc3nc(-c4ccccc4)cc(N4CCN(C(C)=O)CC4)n3n2)cc1", "Potency": "inconclusive: 25.1 µM [inhibitor, single point]"}
{"smiles": "N=c1oc2ccc(Br)cc2cc1C(=O)NCc1ccc(F)cc1", "Potency": "inactive"}
{"smiles": "COc1cccc2c1C(=O)c1c(O)c3c(c(O)c1C2=O)C[C@@](O)(C(=O)CO)C[C@H]3O[C@H]1C[C@H](N)[C@H](O)[C@H](C)O1", "Potency": "active: 0.273 µM"}
{"smiles": "ClC(Cl)(c1nnnn1-c1ccccc1)c1nnnn1-c1ccccc1", "Potency": "inconclusive: 35.5 µM [inhibitor, single point]"}
{"smiles": "Cc1cccc(-n2nnnc2S(C)(=O)=O)c1", "Potency": "inconclusive: 4.47 µM [inhibitor, full curve, poor fit]"}
{"smiles": "COc1cccc(OCC(=O)N(Cc2nc(-c3ccc(Cl)cc3)no2)C(C)C)c1", "Potency": "inconclusive: 25.1 µM [inhibitor, partial curve, poor fit]"}
{"smiles": "CC1CCCCN1S(=O)(=O)c1ccc(C(=O)Nc2nnc(C3CC3)o2)cc1", "note": "(stereo not given)", "Potency": "inactive"}
{"smiles": "Cc1ccc(C)c(N2CCN(C(=O)CCS(=O)(=O)c3ccc4c(c3)CCN4C(=O)C3CC3)CC2)c1", "Potency": "inactive"}
{"smiles": "COc1cc([C@@H]2c3cc4c(cc3[C@@H](O[C@@H]3O[C@@H]5CO[C@@H](C)O[C@H]5[C@H](O)[C@H]3O)[C@H]3COC(=O)[C@H]23)OCO4)cc(OC)c1O", "Potency": "active: 1.12 µM"}
{"smiles": "CCN(CC)CC#CCOC(c1ccccc1)c1ccccc1", "Potency": "inconclusive: 16.8 µM [inhibitor, partial curve]"}
{"smiles": "COc1ccccc1N(C)S(=O)(=O)c1ccc(Cl)c(C(=O)NC2=NCCS2)c1", "Potency": "inactive"}
{"smiles": "O=C(Nc1nc(-c2ccccn2)cs1)c1cc(Cl)ccc1[N+](=O)[O-]", "Potency": "active: 7.52 µM"}
{"smiles": "CC(C)c1cc(C(=O)OCC(=O)NC(=O)NCc2ccco2)c(O)c(C(C)C)c1", "Potency": "inconclusive: 26.7 µM [inhibitor, single point]"}
{"smiles": "CCC(CO)(CO)N(CC(=O)Nc1ccc(OC)cc1)CC(=O)Nc1ccc(OC)cc1", "Potency": "inconclusive: 28.2 µM [inhibitor, partial curve, poor fit]"}
{"smiles": "COc1ccc(NN=Nc2nc3c([nH]2)c(=O)n(C)c(=O)n3C)cc1", "Potency": "inactive"}
{"smiles": "N#Cc1c(C(F)(F)F)cc(-c2cccs2)nc1SCc1cccnc1", "Potency": "inconclusive: 28.2 µM [inhibitor, single point]"}
{"smiles": "COc1cc(C2CC(=O)Nc3c2c(C)nn3-c2nncc(-c3ccccc3)n2)cc(OC)c1OC", "note": "(stereo not given)", "Potency": "inactive"}
{"smiles": "Cc1[nH]n(-c2ccccc2)c(=O)c1/C=N/NC(=O)c1cccc([N+](=O)[O-])c1", "Potency": "active: 14.1 µM"}
{"smiles": "COc1ccc(CNc2ccc(C(=O)O)cc2)cc1", "Potency": "inactive"}
{"smiles": "O=C(NC1CCN(Cc2ccccc2)CC1)C1COc2ccccc2O1", "note": "(stereo not given)", "Potency": "inactive"}
{"smiles": "Cc1nn(-c2ccccc2)c2sc(C(=O)Nc3cccc(O)c3)cc12", "Potency": "inconclusive: 11.2 µM [inhibitor, partial curve]"}
{"smiles": "Cc1csc2nc(COc3ccccc3NC(=O)c3ccccc3Cl)cc(=O)n12", "Potency": "inactive"}
{"smiles": "CCN(c1ccccc1)S(=O)(=O)c1ccc(N2CCN(c3ccc(O)cc3)CC2)nc1", "Potency": "inconclusive: 15.8 µM [inhibitor, partial curve]"}
{"smiles": "CCOCCCNC(=S)NCCc1ccccc1", "Potency": "inactive"}
{"smiles": "CCOC(=O)Cc1csc(NC(=S)NC(=O)c2ccc(Cl)cc2)n1", "Potency": "inactive"}
{"smiles": "CCOc1ccc(NS(=O)(=O)c2ccc3nc(-c4ccccc4)[nH]c3c2)cc1", "Potency": "inconclusive: 35.5 µM [inhibitor, single point]"}
{"smiles": "COC(=O)/C=C(\\C)N=Nc1c(O)[nH]c2ccccc12", "Potency": "inactive"}
{"smiles": "CCOC(=O)CCS(=O)(=O)c1nc(-c2ccccc2)cc(C(F)(F)F)n1", "Potency": "inconclusive: 39.8 µM [inhibitor, single point]"}
{"smiles": "CCNc1nc(-c2sc(NC(=O)C(C)(C)C)nc2C)c(-n2cc(-c3ccccc3)nn2)s1", "Potency": "active: 14.1 µM"}
{"smiles": "O=S(=O)(Nc1ccccc1)c1ccc(Oc2ncc(C(F)(F)F)cc2Cl)cc1", "Potency": "inconclusive: 28.2 µM [inhibitor, single point]"}
{"smiles": "CNC[C@H](NC[C@@H](NCCCc1ccccc1)c1ccccc1)[C@H](C)O", "Potency": "inactive"}
{"smiles": "CCOc1ccc(CCN2C(=O)C(=O)N([C@@H](Cc3ccccc3)CN3CCC[C@H]3CN3C(=O)C(=O)NC[C@@H]3Cc3ccccc3)C[C@@H]2CC(C)C)cc1", "Potency": "inconclusive: 31.6 µM [inhibitor, single point]"}
{"smiles": "CCC(O)CNc1nc(SC)nc2sc3c(c12)CCN(C)C3", "note": "(stereo not given)", "Potency": "inactive"}
{"smiles": "CN(C(=O)c1cccc(NC(=O)Cc2ccc([N+](=O)[O-])cc2)c1)C1CCCC1", "Potency": "inconclusive: 17.8 µM [inhibitor, partial curve, poor fit]"}
{"smiles": "Cc1ccc2nc(Cl)c3cc(C(=O)N(CCN(C)C)Cc4ccco4)sc3c2c1", "Potency": "inconclusive: 39.8 µM [inhibitor, single point]"}
{"smiles": "CCOC(=O)c1cc(-c2csc(-c3ccc(C(C)(C)C)cc3)n2)on1", "Potency": "inactive"}
{"smiles": "C/C(N)=C(/C#N)C(=O)CSc1nnc(COc2ccccc2Cl)o1", "Potency": "inconclusive: 39.8 µM [inhibitor, partial curve, poor fit]"}
{"smiles": "CC1Cc2cc(-c3csc(NC(=O)Cc4ccccc4)n3)ccc2N1S(C)(=O)=O", "note": "(stereo not given)", "Potency": "inconclusive: 20 µM [inhibitor, partial curve]"}
